Reference: PMC4336329 (PLoS ONE, 2015)
Among all 310,000 compounds or so, about 14,000 (4.5%) showed an effect of 50% or more. The effect is printed as a negative number. The list shows a part of the results.

The compounds below were run against human ether-à-go-go-related gene (hERG) potassium channel (human, UniProt Q12809) (assay: primary screen, population patch clamp on CHO cells stably expressing hERG).
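Further: peak tail current of the secondary pulse compared with the same well before compound.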

human ether-à-go-go-related gene (hERG) potassium channel, sequence (Q12809 whole entry, looked up): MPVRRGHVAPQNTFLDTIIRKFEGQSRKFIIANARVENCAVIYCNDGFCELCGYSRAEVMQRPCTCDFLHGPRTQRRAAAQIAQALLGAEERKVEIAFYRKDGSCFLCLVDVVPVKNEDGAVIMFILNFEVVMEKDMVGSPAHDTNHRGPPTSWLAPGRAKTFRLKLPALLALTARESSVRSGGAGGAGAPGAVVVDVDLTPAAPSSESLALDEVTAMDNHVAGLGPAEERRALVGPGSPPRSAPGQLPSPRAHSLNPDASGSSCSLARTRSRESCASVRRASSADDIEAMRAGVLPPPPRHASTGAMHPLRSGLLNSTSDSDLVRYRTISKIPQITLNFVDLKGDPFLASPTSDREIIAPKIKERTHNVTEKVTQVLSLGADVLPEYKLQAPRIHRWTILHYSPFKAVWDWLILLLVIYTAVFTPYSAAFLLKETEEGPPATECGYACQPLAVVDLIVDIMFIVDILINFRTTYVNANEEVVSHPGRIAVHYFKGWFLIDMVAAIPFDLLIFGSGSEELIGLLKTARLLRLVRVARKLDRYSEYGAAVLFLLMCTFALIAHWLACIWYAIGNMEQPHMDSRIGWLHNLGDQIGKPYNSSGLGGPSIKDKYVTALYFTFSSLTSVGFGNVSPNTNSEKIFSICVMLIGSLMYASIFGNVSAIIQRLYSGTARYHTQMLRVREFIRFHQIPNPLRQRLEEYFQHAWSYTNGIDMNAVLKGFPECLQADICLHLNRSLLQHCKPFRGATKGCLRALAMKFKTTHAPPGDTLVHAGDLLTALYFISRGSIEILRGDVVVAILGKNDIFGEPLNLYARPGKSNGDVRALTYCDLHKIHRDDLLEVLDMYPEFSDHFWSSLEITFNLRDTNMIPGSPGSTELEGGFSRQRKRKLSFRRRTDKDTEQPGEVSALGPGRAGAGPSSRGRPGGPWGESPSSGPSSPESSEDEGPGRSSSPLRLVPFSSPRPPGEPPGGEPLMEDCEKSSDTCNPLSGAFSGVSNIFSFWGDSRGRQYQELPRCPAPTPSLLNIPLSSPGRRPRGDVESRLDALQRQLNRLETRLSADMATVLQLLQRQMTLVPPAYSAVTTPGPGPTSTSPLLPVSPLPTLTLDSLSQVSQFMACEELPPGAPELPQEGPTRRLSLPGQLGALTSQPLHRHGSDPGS

| SMILES | hERG current change (%, negative = inhibition) at 10uM |
| --- | --- |
| CCN(CC(=O)Nc1c(F)cccc1F)C(=O)c1ccc(NC(=O)CC2SC(N3CCCC3)=NC2=O)cc1 (centres unmarked) | 3.17% |
| CCS(=O)(=O)NCCc1csc(-c2ccccc2)n1 | 9.98% |
| CCn1ccnc1CN(C)Cc1cn(-c2cc(C)ccc2C)nc1-c1ccccc1 | -51.7% |
| O=S(=O)(c1ccc(OCC(O)CN2CCN(c3ccc(F)cc3)CC2)cc1)N1CCOCC1 (centres unmarked) | -18.2% |
| Cc1cc(NC(=O)c2ccc(Cl)cc2)c(C)cc1O | 1.37% |
| O=[N+]([O-])c1nn(-c2ccc3c(c2)OCCO3)n(O)c1=NCCC1=CCCCC1 | -0.0142% |
| CC(C)(C)N1CCC1C(N)=O (centres unmarked) | 1.86% |
| COc1ccc(C(=O)COC(=O)C2CC3CCCC(C2)C3=O)cc1Br (centres unmarked) | 3.38% |
| CCCNC(=S)N1CCN(Cc2ccc3c(c2)OCO3)CC1.O=C(O)C(=O)O | 8.24% |
| CC1CCN(S(=O)(=O)c2ccc(NC(=O)c3cccs3)cc2)CC1 | -5.54% |
| O=C(O)c1cccc(Nc2ncnc3ccccc23)c1 | 17.3% |
| COC(=O)c1ccc(Nc2cc(C)nc3ccccc23)cc1.Cl | -37.3% |
| O=C(CN1C(=O)COc2ccc(Cl)cc21)N1CCc2ccccc21 | -1.33% |
| Nc1nc(-c2ccco2)nn1C(=O)CCc1ccccc1 | -0.902% |
| O=C(CNC(=S)N(Cc1ccccc1)Cc1cccnc1)N1CCOCC1 | 54.9% |
| CCOc1ccc(NC(=O)Cc2c(C(=O)O)n(C)c3ccccc23)cc1 | 20.5% |
| CCCn1nnc(NC(=O)C(c2ccccc2)c2ccccc2)n1 | 4.18% |
| O=C(NCc1cccs1)c1nc2ncccn2n1 | 4.4% |
| O=C1CC(C(=O)N2CCN(S(=O)(=O)c3cccc(F)c3)CC2)CN1Cc1ccccc1Cl (centres unmarked) | -9.24% |
| COc1ccc(NC(=O)CC2C(=O)N(C)C(=S)N2Cc2ccc3c(c2)OCO3)cc1 (centres unmarked) | -29.1% |
| N#CC1CCN(C(=O)c2ccc3c(Cl)c4c(nc3c2)CCCC4)CC1 | -12.6% |
| N#CCCN(C1CCCCC1)S(=O)(=O)CCOc1ccccc1 | -6.01% |

| SMILES | hERG current change (%, negative = inhibition) at 10uM |
| --- | --- |
| COc1ccc(NC(=O)c2cccc(S(=O)(=O)N3CCOCC3)c2)cc1 | -15.9% |
| CCOC(=O)N1CCN(C(=O)C2CCCN(c3ncnc4c3nc3n4CCCCC3)C2)CC1 (centres unmarked) | -22.9% |
| CCOC(=O)N1CCN(C(=O)c2ccc3c(c2)N(C)C(=O)/C(=C\c2ccc(OCC)c(OC)c2)S3)CC1 | -32.5% |
| COc1ccc2cc(CN(Cc3ccco3)C(=S)NCC3CCCO3)c(=O)[nH]c2c1 (centres unmarked) | 12.5% |
| COc1ccc(/C(C)=N/N=C2/NC(=O)CC(C(=O)O)S2)cc1 (centres unmarked) | -4.66% |
| CCOC(=O)c1ccc(N2CN(CCc3ccccc3)CNC2=S)cc1 | 6.21% |
| Cc1c2cnn(CC(=O)N3CCN(c4ncccn4)CC3)c(=O)c2c(C)n1Cc1ccc(F)cc1 | 15.4% |
| COc1ccc(S(=O)(=O)c2c(O)c3ccc(C(=O)Nc4ccc(F)cc4)cc3[nH]c2=O)cc1 | 1.4% |
| COc1ccc(C)cc1Nc1n[n+](-c2ccccc2)c(-c2ccc(N(C)C)cc2)s1.[Cl-] | -49.3% |
| CCN(CC)S(=O)(=O)c1ccc(Cl)c(C(=O)N2CCc3ccccc32)c1 | -44.8% |
| CCN(CCCNC(=O)Cn1ncc2c([nH]c3ccc(C)cc32)c1=O)c1cccc(C)c1 | 21.3% |
| COc1ccc(NC(=O)CSc2nc(O)c(Cc3ccccc3)c(=O)[nH]2)cc1 | 7.34% |
| O=C(NC1=NCCS1)c1ccc(-c2ccc(Cl)cc2)o1 | -18.6% |
| O=C(C1=C[C@H](C2CC2)C[C@H](OCc2ccc(CO)cc2)O1)N1CCN(Cc2ccccc2)CC1 | -62.7% |
| COc1ccc(N/C(=C2\CCCC2=O)C2CCCCC2)cc1 | -19.7% |
| CC(OC(=O)CNC(=O)C12CC3CC(CC(C3)C1)C2)C(=O)Nc1ccc(N2CCOCC2)cc1 (centres unmarked) | 2.32% |
| O=C(CCC1N=C2c3ccccc3N=C(SCc3ccccc3Cl)N2C1=O)NCc1ccco1 (centres unmarked) | -32.4% |
| COc1cccc(CC(NC(C)=O)C(=O)NC2CCN(c3nc(C)cc(C)c3C#N)CC2)c1OC (centres unmarked) | -11.7% |
| O=C(O)c1cc(N/N=C/c2cccc3ccccc23)ccc1Cl | 8.05% |
| CCSc1ncc(Cl)c(C(=O)Nc2ccc(S(N)(=O)=O)cc2)n1 | -1.66% |
| N#Cc1ccccc1OCC(=O)NCC(c1ccc(F)cc1)N1CCOCC1 (centres unmarked) | -11.4% |
| CC(C)N(C(=NCc1ccccc1)NC(=O)c1ccccc1)C(C)C | -12.7% |

| SMILES | hERG current change (%, negative = inhibition) at 10uM |
| --- | --- |
| O=C(CC1CCCCC1)NCCOc1ccccc1 | -4.32% |
| C/C(=N\Nc1cccc(C(F)(F)F)c1)c1ccc(O)cc1 | 0.916% |
| O=C(Cc1ccccc1)Nc1ccc(NC(=O)c2ccccc2)nc1 | 3.23% |
| O=C(N1CCN(c2ccccc2F)CC1)C1(S(=O)(=O)c2ccc(Cl)cc2)CC1 | 9.2% |
| FC(F)(F)c1cc(CCN2CCNC[C@@H]2Cc2ccccc2)cc(C(F)(F)F)c1 | -11.6% |
| CC(NC(=O)c1ccccc1F)C(=O)O (centres unmarked) | 16.7% |
| CCc1ccc(CN(C)Cc2nc(-c3cccc(Cl)c3)no2)nc1 | -19.9% |
| Cc1cc(NC(=O)CSc2nncn2N)no1 | 17.5% |
| CCOc1ccc(CCNc2nc3ccc(C)cc3n3cnnc23)cc1OCC | -25.2% |
| O=P1(Oc2ccccc2)CC=C[C@H](COCc2ccccc2)O1 (some centres unmarked) | 19.5% |
| O=C(c1cccc(S(=O)(=O)N2CCc3ccccc3C2)c1)N1CCN(c2ccccc2)CC1 | 3.99% |
| NC(=O)c1ccc(C(=O)c2ccc([N+](=O)[O-])cc2)cc1 | 0.854% |
| CN1CCN(S(=O)(=O)c2ccc(Oc3ccc(Br)cc3F)nc2)CC1 | -30.7% |
| Cc1c(NC(=O)CSCc2c(F)cccc2Cl)c(=O)n(-c2ccccc2)n1C | -14.6% |
| Cc1ccc(NC(=O)CN(C)C(=O)Cn2cc(C(F)(F)F)cc(Cl)c2=O)cc1 | -1.42% |
| CCOC(=O)c1c(-c2ccc(OC)cc2)csc1NC(=O)COc1ccc2c(C)cc(=O)oc2c1 | 22.8% |
| Cc1ccc(C(=O)CCC(=O)CCC(=O)O)cc1 | 9.2% |
| Cc1ccsc1/C=N/NC(=O)Nc1ccccc1 | 48% |
| Cn1cc([N+](=O)[O-])c(C(=O)Nc2ccc(-c3nc4ccccc4o3)cc2)n1 | 12% |
| CCC(CC)c1ncc[nH]1 | 17.8% |
| Cc1c(CC(=O)O)c(=O)oc2cc(OCc3ccc(Cl)cc3)ccc12 | 30.2% |
| CN(CC(=O)Nc1ccncc1)S(=O)(=O)c1ccccc1 | -0.871% |

| SMILES | hERG current change (%, negative = inhibition) at 10uM |
| --- | --- |
| COc1ccc(-n2nc3c(N4CCC(C(=O)NC5CCCCC5)CC4)nnc(C)c3c2C)cc1 | -5.39% |
| N#CC(C#N)=Cc1cc2ccccc2nc1N1CCCCC1 | 2.22% |
| O=[N+]([O-])c1cccc(S(=O)(=O)NCc2ccncc2)c1 | 19.4% |
| COc1ccc(-c2c(-c3cc(OC)cc(OC)c3)n(C)c3ccc(-c4ccc(OC)nc4)cc23)cc1 | 4.5% |
| O=C(NCCN1CCCC1=O)Nc1ccccc1 | -5% |
| COc1ccc2cc3c(N)nn(C(=O)c4cccc(F)c4)c3nc2c1 | 14% |
| COCc1ccc(-c2c(-c3ccsc3)sc3ccccc23)cc1 | 16.2% |
| COc1ccc(NC2CCCN(C(=O)CSc3ccccc3)C2)cc1OC (centres unmarked) | -19.6% |
| COc1ccc(CN2CCNC(=O)C2CC(=O)N(C)Cc2ccncn2)c(OC)c1 (centres unmarked) | 12.6% |
| Nc1nonc1-n1nnc(C(=O)N/N=C\c2cccc(Cl)c2)c1CN1CCOCC1 | -44.4% |
| CC(C)(C)NC(=O)CN(Cc1ccc2c(c1)OCO2)C(=O)CNC(=O)c1cccs1 | 18.9% |
| CCOc1ccc(C(=O)NCCN2CCCCC2)c(OCC)c1 | -23.1% |
| O=C(NC1CCCc2ccccc21)C(Cc1ccccc1)NS(=O)(=O)c1cccs1 (centres unmarked) | -13% |
| O=C(CCN1C(=O)CSc2ccccc21)Nc1ccc(C(F)(F)F)cc1 | -11% |
| Cc1noc(NS(=O)(=O)c2ccc(NC(=O)c3nn(-c4ccccc4)ccc3=O)cc2)c1C | 23.9% |
| O=C(Nc1ccc(Br)cc1)C1CC=CCC1C(=O)OCC1CCCO1 (centres unmarked) | 5.38% |
| Cc1ccc(S(=O)(=O)N(C)CCCC(=O)NC(C)(C)C)cc1 | 13.3% |
| Cn1cc(C(=O)N/N=C/c2c(O)ccc3ccccc23)ccc1=O | 25.9% |
| O=C(O)c1ccc(N2CCc3ccccc32)c([N+](=O)[O-])c1 | 25.3% |
| CN1C(=O)C(C)(C)c2cc(S(=O)(=O)N3CCC(C(=O)NCc4ccc(F)cc4)CC3)ccc21 | -10.3% |
